# Source: paper PMC12136788
# This is one part of the list.
# B1: chr7:65954205:65954306:+|CDS_3pUTR|ENSG00000196715|msi1_unk|total|mutant (ssRNA)
# RNA: GGGAGUUCUACAGUCCGACGAUCCAUCUGCAUCGUCACGUACGUGCUGAACUUCCUUCUUCUCAUUAUCAACUACAAACGACCCGUUUACUUGAACGAGGCCUGGAAGCGGCAGCUGCAACCCAAGCAGGACUGACGCCCGACCAACAGAGGAUUGAGCAUCA
# B2: ENSG00000035403:stop:overlap|stop_codon|ENSG00000035403|stop_codon|NA|stop_codon (ssRNA)
# RNA: GGGAGUUCUACAGUCCGACGAUCAAAUUCGAACAGAUGCUGGAUUUACACUGCGCUGGGUUAGAAAGACUCCCUGGUACCAGUAGGCACCUGGCUGAGCCUGGCUGGCACAGAAACCUCUACUAAAAAGAAGGAAAAUGAUCUCAACAGAGGAUUGAGCAUCA
# B3: chr1:32196422:32196614:+|3pUTR|ENSG00000084652|msi1|FALSE|unique (ssRNA)
# RNA: GGGAGUUCUACAGUCCGACGAUCACAGUUGUUUCUGUGUCCUGUUCUACCCCCACUCCAGUACAUAACUACUAUGUACUGUGUAGAGCCAUUCUAUAUGCUGAAUGUUCUGCUGUUGCAAACUUGCCAGGGUAUUAGCCAGUGCAACAGAGGAUUGAGCAUCA
# B4: chr12:4445224:4445570:-|CDS|ENSG00000111241|control|control|control (ssRNA)
# RNA: GGGAGUUCUACAGUCCGACGAUCCAACACGCUGCUGGACUCGAGGGGCUGGGGCACCCUGCUGUCCAGGUCUCGCGCCGGGCUAGCUGGAGAGAUUGCCGGGGUGAACUGGGAAAGUGGCUAUUUGGUGGGGAUCAAGCGGCACAACAGAGGAUUGAGCAUCA
# B5: chr11:28036422:28036524:-|CDS|ENSG00000121621|unk|FALSE|unique (ssRNA)
# RNA: GGGAGUUCUACAGUCCGACGAUCCAGCUCAAUGAUUCUCUUAGCAAAGAACUUCAGCCUAUUGUAUAUACACCAGAAGACUGUAGAAAAGCUUUUCAAAAUCCGUCUACAGUAACCUUAAUGAAACCAUCAUCAUUUACUACACAACAGAGGAUUGAGCAUCA
# B6: chr21:31659700:31659757:+|5pUTR|ENSG00000142168|msi1_unk|total|mutant (ssRNA)
# RNA: GGGAGUUCUACAGUCCGACGAUCCGAGGCGCGGAGGUCUGGCCUAUAAAGCCGUCGCGGAGACGGGGUGCUGGUUUGCGUCGCCGUCUCCUGCAGCGUCUGGGGUUUCCGUUGCAGUCCUCGGAACCAGGACCUCGGCGUGGCCAACAGAGGAUUGAGCAUCA
# B7: chr10:97759570:97759671:+|3pUTR|ENSG00000155256|msi1|total|mutant (ssRNA)
# RNA: GGGAGUUCUACAGUCCGACGAUCGACUGAGCGAGUGGACUCCGGGCUGGGCAGGCAGCCGCCACCAGAGGGCAGCAGCGAACCCGGCCAGGCCUGACUGGGGUCUGAAGAUCAGGGUCAGUGUGGCUGUGCCUGGGAAUUCCACAACAGAGGAUUGAGCAUCA
# B8: chr5:16663783:16663884:-|3pUTR|ENSG00000145555|msi1|FALSE|bound_elsewhere (ssRNA)
# RNA: GGGAGUUCUACAGUCCGACGAUCUGAGGAUACAAAAUUCACAGAUGCUCAAGUCCCUGCUAUACAGUGGUAUAAUAUUUGCAUAGAACCUGCACACAUCUUUCCUUACCCUUUAAAUCAUCUCCAGGUUACAGAUACCUAGCACAACAGAGGAUUGAGCAUCA
# B9: chr22:28629602:28629705:-|CDS|ENSG00000100154|unk|FALSE|unique (ssRNA)
# RNA: GGGAGUUCUACAGUCCGACGAUCAUUGUUCUGUAUAAUGAAGCCCUGGCUGUUGACCCUCAGAACUGCAUCUUAUACAGCAAUAGAUCUGCAGCCUACAUGAAAAUCCAGCAGUAUGACAAGGCACUGGAUGAUGCAAUCAAACAACAGAGGAUUGAGCAUCA
# B10: chr17:44352837:44352938:+|3pUTR|ENSG00000030582|unk|FALSE|unique (ssRNA)
# RNA: GGGAGUUCUACAGUCCGACGAUCCUGAAGACUCUGCAGCCCUCGGGACCCCACUCGGAGGGUGCCCUCUGCUCAGGCCUCCCUAGCACCUCCCCCUAACCAAAUUCUCCCUGGACCCCAUUCUGAGCUCCCCAUCACCAUGGGCAACAGAGGAUUGAGCAUCA
# B11: chr13:45957189:45957298:-|CDS|ENSG00000123200|unk|FALSE|unique (ssRNA)
# RNA: GGGAGUUCUACAGUCCGACGAUCUGUUUUUGUUUUCUUCAAAUAGGGCACCAUAAAACAAGCUUACACGAGUGCUCCAAUGGUAGACAAUGAAUUACUUCGAUUGAGUCUUCGGUUAUUUAAGCGGAAGACUACUUGCCAUGCCAACAGAGGAUUGAGCAUCA
# B12: chr5:138184526:138184629:+|CDS|ENSG00000112984|unk|FALSE|unique (ssRNA)
# RNA: GGGAGUUCUACAGUCCGACGAUCGUGCAUGCCCCACCUAUGCAACUGGGAUUCCCAUCCCUGCACUCGUUCAUCAAGGAACAUAGUCUUCAGGUAUCCCCCAGCUUAGAGAAAGGGGCUAAGGCAGACACAGGCCUUGAUGAUCAACAGAGGAUUGAGCAUCA
# B13: chr6:113953301:113953428:-|CDS|ENSG00000196591|unk|total|mutant (ssRNA)
# RNA: GGGAGUUCUACAGUCCGACGAUCAAAAACCAAAACUUAUGGAUUUGUUUUCAGGUAUCAUCAGAGAGUCUUAUAUAUUGAUACCGAUAUUCAUCAUGGUGAUGGUGUUGAAGAAGCUUUUUAUACAACAGAUCGUGUAAUGACCAACAGAGGAUUGAGCAUCA
# B14: ENSG00000093010:stop:overlap|stop_codon|ENSG00000093010|stop_codon|NA|stop_codon (ssRNA)
# RNA: GGGAGUUCUACAGUCCGACGAUCGCUGCUGCCCAGAGCCCAUUCAGUCAGCCUCAGCCUCUCCAAAGAGCCAGGCAUUCCAGUAGAGCCCUGUGUGGACACAGCUCGCUCUGGAGGCACCACCUGAGGUCUGGGAGUGUGGGGCAACAGAGGAUUGAGCAUCA
# Target: MSI1 full-length (mouse, UniProt Q61474 1-362)
# Sequence of UniProt Q61474 (Q61474 whole entry): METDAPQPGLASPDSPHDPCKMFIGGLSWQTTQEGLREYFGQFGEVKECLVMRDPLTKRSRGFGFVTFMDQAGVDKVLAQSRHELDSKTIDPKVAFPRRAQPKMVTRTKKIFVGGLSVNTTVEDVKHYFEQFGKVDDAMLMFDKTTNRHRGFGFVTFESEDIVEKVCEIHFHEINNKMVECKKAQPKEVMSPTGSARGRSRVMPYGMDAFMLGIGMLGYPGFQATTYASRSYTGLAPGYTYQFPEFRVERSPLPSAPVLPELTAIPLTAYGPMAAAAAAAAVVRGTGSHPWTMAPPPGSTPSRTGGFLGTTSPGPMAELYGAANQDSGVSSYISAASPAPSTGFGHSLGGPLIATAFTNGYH
# Test: nsRBNS (natural sequence RNA bind-n-seq); RBNS binding buffer (assumed for nsRBNS): 25 mM Tris pH 7.5, 150 mM KCl, 3 mM MgCl2, 0.01% Triton X-100, 500 ug/ml BSA, 20 U/ml SUPERase-In, 4 C; UNK is unkempt and MSI1 is Musashi-1; names of the RNAs are library labels; protein concentration not given here; high values mean tight binding
row,Binder,binding signal [enrichment R]
1,B1,0.462
2,B2,0.927
3,B3,0.443
4,B4,0.512
5,B5,0.992
6,B6,0.312
7,B7,0.309
8,B8,2.21
9,B9,0.379
10,B10,0.411
11,B11,0.2
12,B12,0.612
13,B13,1.15
14,B14,0.633
